{
  "source": "paper PMC4336329",
  "about": "(PLoS ONE, 2015)",
  "note": "The whole screen tested about 310,000 compounds, of which about 14,000 (4.5%) showed an effect of 50% or more. Effects have a minus sign here. Some of the results follow.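 Further: peak tail current of the secondary pulse compared with the same well before compound.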",
  "data": [
    {"target": "human ether-à-go-go-related gene (hERG) potassium channel (human, UniProt Q12809)", "sequence (Q12809 whole entry, looked up)": "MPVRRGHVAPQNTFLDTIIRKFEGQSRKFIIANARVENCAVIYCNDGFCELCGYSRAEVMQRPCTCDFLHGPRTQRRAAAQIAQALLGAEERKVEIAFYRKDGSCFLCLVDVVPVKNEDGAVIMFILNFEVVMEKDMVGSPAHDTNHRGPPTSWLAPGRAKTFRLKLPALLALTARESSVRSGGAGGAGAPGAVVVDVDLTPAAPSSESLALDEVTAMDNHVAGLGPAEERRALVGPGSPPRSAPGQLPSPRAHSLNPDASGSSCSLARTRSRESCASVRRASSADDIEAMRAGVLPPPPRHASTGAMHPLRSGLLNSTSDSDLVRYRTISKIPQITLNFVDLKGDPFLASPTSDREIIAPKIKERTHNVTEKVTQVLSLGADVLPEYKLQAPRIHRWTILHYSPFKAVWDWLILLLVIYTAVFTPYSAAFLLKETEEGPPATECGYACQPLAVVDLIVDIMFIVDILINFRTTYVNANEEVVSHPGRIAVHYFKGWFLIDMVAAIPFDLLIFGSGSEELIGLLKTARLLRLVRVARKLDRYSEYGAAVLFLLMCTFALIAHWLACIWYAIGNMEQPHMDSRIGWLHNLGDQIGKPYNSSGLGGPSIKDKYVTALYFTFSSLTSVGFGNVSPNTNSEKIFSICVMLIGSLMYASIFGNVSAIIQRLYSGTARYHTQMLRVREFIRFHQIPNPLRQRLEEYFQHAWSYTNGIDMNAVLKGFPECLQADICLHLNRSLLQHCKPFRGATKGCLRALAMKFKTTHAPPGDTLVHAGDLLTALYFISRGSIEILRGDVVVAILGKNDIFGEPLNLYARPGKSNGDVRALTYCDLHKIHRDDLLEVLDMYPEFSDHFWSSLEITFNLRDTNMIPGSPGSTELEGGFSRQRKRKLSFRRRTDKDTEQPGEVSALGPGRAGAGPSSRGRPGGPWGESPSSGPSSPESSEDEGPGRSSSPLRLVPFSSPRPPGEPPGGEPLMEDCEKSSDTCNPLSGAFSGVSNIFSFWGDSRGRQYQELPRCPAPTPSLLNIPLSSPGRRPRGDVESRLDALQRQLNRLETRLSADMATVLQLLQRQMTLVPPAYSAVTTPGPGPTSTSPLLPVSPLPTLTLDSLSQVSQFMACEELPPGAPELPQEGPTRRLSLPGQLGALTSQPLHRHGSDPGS", "test": "primary screen, population patch clamp on CHO cells stably expressing hERG", "units": {"hERG current change (%, negative = inhibition) at 10uM": "%"}, "values": [
      {"smiles": "CCOC(=O)c1cccc(NC(=O)CCc2nc(-c3ccccc3F)no2)c1", "hERG current change (%, negative = inhibition) at 10uM": 8.4},
      {"smiles": "Cc1ccccc1C(=O)NC(CC(C)C)C(=O)Nc1ccc(S(N)(=O)=O)cc1", "note": "(centres unmarked)", "hERG current change (%, negative = inhibition) at 10uM": 16.4},
      {"smiles": "Cc1ccc(NC(=O)N[C@@H](CC(C)C)C(=O)O)c(C)c1", "hERG current change (%, negative = inhibition) at 10uM": 29.6},
      {"smiles": "CN1C(=O)C(O)(CC(=O)c2cccc(-n3cccc3)c2)c2ccccc21", "note": "(centres unmarked)", "hERG current change (%, negative = inhibition) at 10uM": -10.4},
      {"smiles": "S=C(Nc1ccc(Cl)cc1)N1CCN(Cc2ccccc2)CC1", "hERG current change (%, negative = inhibition) at 10uM": 1.73},
      {"smiles": "CCOC(=O)c1cc2c(=O)n3cccc(C)c3nc2n(Cc2ccco2)c1=NC(=O)c1ccccc1", "hERG current change (%, negative = inhibition) at 10uM": -37.2},
      {"smiles": "COc1ccc(NC(=O)C2CCC(C(C)(C)C)CC2)cc1S(=O)(=O)N1CCCCC1", "note": "(centres unmarked)", "hERG current change (%, negative = inhibition) at 10uM": -9.09},
      {"smiles": "COc1ccc(NC(=O)c2ccc(CN3CCN(c4ccccc4)CC3)cc2)cc1", "hERG current change (%, negative = inhibition) at 10uM": -9.47},
      {"smiles": "CC(NC1CCN(Cc2ccccc2)CC1)c1ccc(F)cc1", "note": "(centres unmarked)", "hERG current change (%, negative = inhibition) at 10uM": 3.46},
      {"smiles": "Cc1cc(C)c2ccc3c(C)c(C)nc3c2[nH]1", "hERG current change (%, negative = inhibition) at 10uM": 10.2},
      {"smiles": "CN(CC(=O)Nc1ccc(F)cc1)C(=O)c1ccc(N2C(=O)CCC2=O)cc1", "hERG current change (%, negative = inhibition) at 10uM": -9.61},
      {"smiles": "O=C(NCc1ccco1)c1ccccc1O", "hERG current change (%, negative = inhibition) at 10uM": 10.5},
      {"smiles": "O=C(COC(=O)c1ccccc1-n1cnnn1)c1ccc(F)cc1", "hERG current change (%, negative = inhibition) at 10uM": -14},
      {"smiles": "COc1ccc(C2Oc3ccccc3N2C(C)=O)cc1", "note": "(centres unmarked)", "hERG current change (%, negative = inhibition) at 10uM": -14},
      {"smiles": "CC(C)CC(=O)Nc1ccc(C(=O)CN2CCC(C)CC2)cc1", "hERG current change (%, negative = inhibition) at 10uM": 8.63},
      {"smiles": "COc1ccc2nc(NC(=O)c3ccccc3O)sc2c1", "hERG current change (%, negative = inhibition) at 10uM": 18.2},
      {"smiles": "CCCCCCNC(=O)CNC(=S)N(Cc1cccs1)C1CCCCC1", "hERG current change (%, negative = inhibition) at 10uM": 2.13},
      {"smiles": "O=c1c(O)c(-c2cc(O)c(O)c(O)c2)oc2cc(O)cc(O)c12", "hERG current change (%, negative = inhibition) at 10uM": 22.6},
      {"smiles": "O=C(O)CCC(=O)NNC(=O)CCC(=O)NCc1ccccc1", "hERG current change (%, negative = inhibition) at 10uM": 16.5},
      {"smiles": "CCOC(=O)c1ccc(NC(=O)Nc2c(C)n(C)n(-c3ccccc3)c2=O)cc1", "hERG current change (%, negative = inhibition) at 10uM": -13.8},
      {"smiles": "COC(=O)c1cc(OCC(=O)NC2CCCc3ccccc32)cc(C(=O)OC)c1", "note": "(centres unmarked)", "hERG current change (%, negative = inhibition) at 10uM": -2.85},
      {"smiles": "NC(=O)c1c(NC(=O)CN2CCCC2)sc2c1CCCC2", "hERG current change (%, negative = inhibition) at 10uM": -5.13},
      {"smiles": "COc1ccc(-c2csc(NC(=O)c3ccc(C(C)(C)C)cc3)c2C(=O)O)cc1", "hERG current change (%, negative = inhibition) at 10uM": 24.9},
      {"smiles": "CCC(C)(C)NC(=O)C(c1cccc(OC)c1OC)N(CC(C)C)C(=O)CCC(=O)Nc1cc(C)on1", "note": "(centres unmarked)", "hERG current change (%, negative = inhibition) at 10uM": -2},
      {"smiles": "COc1cccc(CCC(=O)Nc2cc3c(cc2C(=O)O)OCCCO3)c1OC", "hERG current change (%, negative = inhibition) at 10uM": 2.98},
      {"smiles": "O=S(=O)(Nc1ccccc1F)c1ccc(Cl)nc1", "hERG current change (%, negative = inhibition) at 10uM": 5.63},
      {"smiles": "Cc1ccc(C)c(NC(=O)c2sc(Cl)nc2-c2ccccc2)c1", "hERG current change (%, negative = inhibition) at 10uM": 13.9},
      {"smiles": "CC(C)c1ccc(N2C(=O)C(Cl)=C(N3CCOCC3)C2=O)cc1", "hERG current change (%, negative = inhibition) at 10uM": 13.6},
      {"smiles": "COc1cccc(NC(=O)Nc2cccc(C(=O)O)c2)c1", "hERG current change (%, negative = inhibition) at 10uM": 19.1},
      {"smiles": "O=C(Nc1ccc(F)c(F)c1)NC1CCCCC1", "hERG current change (%, negative = inhibition) at 10uM": 2.91},
      {"smiles": "Cn1c(N)c(C(=O)COC(=O)/C=C/c2ccccc2Cl)c(=O)n(C)c1=O", "hERG current change (%, negative = inhibition) at 10uM": -2.34},
      {"smiles": "COc1ccc2oc(C(=O)N(C)CCOc3ccccc3)c(C)c2c1", "hERG current change (%, negative = inhibition) at 10uM": -28.9},
      {"smiles": "CCOc1ccc(C(=O)NC(C(=O)NCCc2ccc(S(N)(=O)=O)cc2)C(C)C)cc1", "note": "(centres unmarked)", "hERG current change (%, negative = inhibition) at 10uM": 13.4},
      {"smiles": "O=C(NC1C2CC3CC(C2)CC1C3)c1ccc(N2CCNCC2)c([N+](=O)[O-])c1", "note": "(centres unmarked)", "hERG current change (%, negative = inhibition) at 10uM": -18},
      {"smiles": "Cc1c(C(=O)NC2CCN(Cc3ccccc3)C2)oc2ccc(Br)cc12", "note": "(centres unmarked)", "hERG current change (%, negative = inhibition) at 10uM": -61.8},
      {"smiles": "CC(/C=C1\\SC(=S)N(NC(=O)c2cccc(O)c2)C1=O)=C\\c1ccccc1", "hERG current change (%, negative = inhibition) at 10uM": 16.6},
      {"smiles": "CN(Cc1ccccc1)C(=O)c1cccc(NC(=O)c2ccco2)c1", "hERG current change (%, negative = inhibition) at 10uM": -32.7},
      {"smiles": "Cc1cc(C)c(C)c(S(=O)(=O)N2CCN(c3ncnc4sc(C)c(C)c34)CC2)c1C", "hERG current change (%, negative = inhibition) at 10uM": 8.21},
      {"smiles": "Cn1c(=O)c2c(nc(SCCN3CCCCC3)n2Cc2ccc(Cl)cc2)n(C)c1=O", "hERG current change (%, negative = inhibition) at 10uM": -72.3},
      {"smiles": "COc1ccccc1NC(=O)c1ccc(NC(=O)CSc2n[nH]c(N)n2)cc1", "hERG current change (%, negative = inhibition) at 10uM": 16.1},
      {"smiles": "CCOc1ccc(C(=O)NCCC2=CCCCC2)cc1OCC", "hERG current change (%, negative = inhibition) at 10uM": -0.0306},
      {"smiles": "O=C(c1ccccc1NS(=O)(=O)c1cccc2cccnc12)N1CCOCC1", "hERG current change (%, negative = inhibition) at 10uM": 7.65},
      {"smiles": "COc1cc(/C=C/C(=O)c2c(O)n(CCc3ccccc3)c(=O)[nH]c2=O)ccc1O", "hERG current change (%, negative = inhibition) at 10uM": -2.53},
      {"smiles": "CCOc1ccc(C(=O)OCC(=O)NCCCc2ccccc2)cc1", "hERG current change (%, negative = inhibition) at 10uM": 0.425},
      {"smiles": "Cc1cc([N+](=O)[O-])nn1CC(=O)Nc1cccc2nonc12", "hERG current change (%, negative = inhibition) at 10uM": 15.1},
      {"smiles": "CCCc1cc(C(=O)OCC(=O)N(CCC)c2c(N)n(Cc3ccccc3)c(=O)[nH]c2=O)sc1C", "hERG current change (%, negative = inhibition) at 10uM": -11.2},
      {"smiles": "C/C(=N\\OC(=O)c1ccc(F)cc1)c1ccc(F)c(F)c1", "hERG current change (%, negative = inhibition) at 10uM": 12.9},
      {"smiles": "Cc1oc2c(c(C)cc3oc(=O)c(CC(=O)N[C@H](C(=O)O)C(C)C)c(C)c32)c1C", "hERG current change (%, negative = inhibition) at 10uM": 15.2},
      {"smiles": "O=C(NCc1ccc2c(c1)OCO2)c1ccc2c(c1)OCCO2", "hERG current change (%, negative = inhibition) at 10uM": 8.03},
      {"smiles": "NC(=O)c1cc(S(=O)(=O)N2CC=C(c3ccccc3)CC2)cs1", "hERG current change (%, negative = inhibition) at 10uM": -4.82},
      {"smiles": "CCSC(C)CC1CC(=O)CC(=O)C1", "note": "(centres unmarked)", "hERG current change (%, negative = inhibition) at 10uM": -10.9},
      {"smiles": "COc1cccc(C(=O)NCCS(=O)(=O)N2CCC(C)CC2)c1", "hERG current change (%, negative = inhibition) at 10uM": -12.6},
      {"smiles": "CCOC(=O)c1ccc(Nc2c(CC)c(C)nc3ncnn23)cc1", "hERG current change (%, negative = inhibition) at 10uM": -14.3},
      {"smiles": "CCn1c(=NC(=O)CSCC(=O)Nc2nccs2)sc2ccccc21", "hERG current change (%, negative = inhibition) at 10uM": -5.31},
      {"smiles": "O=C(O)CSc1nc2ccccc2n1-c1ccccc1", "hERG current change (%, negative = inhibition) at 10uM": 9.51},
      {"smiles": "CC(=O)c1ccc(NS(=O)(=O)c2ccc(CC(C)C)cc2)cc1", "hERG current change (%, negative = inhibition) at 10uM": -7.55}
    ]}
  ]
}
